# Reference: PubChem BioAssay AID624296 (National Center for Advancing Translational Sciences (NCATS), 2012)
# The campaign covered roughly 350,000 compounds. About 9,900 (2.8%) were called active. The shares of active, inactive and inconclusive entries below differ from those in the screen. Calls follow the shape of the dose curve; as a rule, active = well fitted activation curve with a large enough effect; inconclusive = small, poorly fitted or top-dose-only effect; inactive = no such curve, though single readings can be large or run the other way. Potencies of inconclusive entries are left out as doubtful fits.
# Test: A quantitative high throughput screen for small molecules that induce DNA re-replication in MCF 10a normal breast cells. Also: nearly all actives have a fitted effect of over 50% in size. As to activity, positive = re-replication: % of control where 0% means no effect.
# Settings: MCF 10A DNA re-replication, Hoechst nuclear intensity, 48 h; activity, positive = re-replication: at 46.1 µM (top of the series)
# Potency is read from the fitted curve at half-maximal effect; tags tell the direction and shape of the fitted curve.
SMILES,Potency,"activity, positive = re-replication"
N#Cc1ccc(-c2cccnc2)nc1SCc1ccc(Cl)c(Cl)c1,"inconclusive [activator, single point]",–
CCOC(=O)C1=C(CN2CCc3ccccc32)NC(=O)NC1c1cc(C)ccc1C (stereo not given),"inconclusive [activator, partial curve, poor fit]",–
O=C(/C=C/Sc1ncn[nH]1)c1ccc(Cl)cc1,"inconclusive [activator, full curve, poor fit]",–
CCOc1ccc(S(=O)(=O)N2CCC(C(=O)NC3CC3)CC2)cc1Cl,–,inactive: 0.59%
Cc1cccc(-c2nnc(SCCC(=O)N3CCOCC3)o2)c1,–,inactive: 0.822%
CCCn1nc(C(=O)NCc2ccc3c(c2)OCO3)c2ccccc2c1=O,–,inactive: 8.07%
Cc1ccc(C2=NN(S(C)(=O)=O)C(c3cccs3)C2)cc1 (stereo not given),–,inactive: -4.56%
CCOC(=O)Cc1cc(-c2ccc(OC)cc2)nc2ccc3ccccc3c12,"inconclusive [activator, partial curve, poor fit]",–
C/C(=N/NC(=O)c1cc(-c2ccc(Cl)s2)[nH]n1)c1ccco1,"inconclusive [activator, partial curve, poor fit]",–
Nc1ccc(-c2cnc[nH]2)cc1[N+](=O)[O-],–,inactive: -3.02%
CC1(C)CC(=O)C(N=Nc2cccc([N+](=O)[O-])c2)=C(O)C1,–,inactive: 39.3%
O=C(NCc1cccnc1)C(=O)NCC(c1ccco1)N1CCN(c2ccccc2)CC1 (stereo not given),–,inactive: 4.28%
COc1ccc(N2CCN(C(=O)CSc3nnnn3-c3ccc4c(c3)OCCO4)CC2)cc1,active: 16.4 µM,–
Cc1ccc(CSCc2nnc(SCC(=O)N3CCN(c4ccccc4)CC3)n2C)cc1,–,inactive: 15.8%
C/C(CCc1ccco1)=N/NC(=O)CCC(=O)Nc1cccc(Cl)c1,–,inactive: -1.27%
COc1ccc(C(=O)/C=C/c2ccc(F)cc2)c(OC(=O)c2ccc([N+](=O)[O-])cc2)c1,"inconclusive [activator, single point]",–
CCOc1ccccc1-n1c(CN2CCN(C(=O)c3ccco3)CC2)nc2ccccc2c1=O,active: 3.66 µM,–
CCc1ncc(CN2CCCC(C(=O)Nc3cccc(-c4cccc(C)c4)c3)C2)cn1 (stereo not given),"inconclusive [activator, single point]",–
O=C(NC1CCCC1)C(c1ccncc1)N(C(=O)c1csnn1)C1CCCC1 (stereo not given),–,inactive: -1.91%
O=C1CCN(C(=O)Nc2ccccc2Cl)N1,"inconclusive [activator, partial curve, poor fit]",–
OCCCNc1ncnc2oc(-c3ccccc3)c(-c3ccccc3)c12,"inconclusive [activator, partial curve, poor fit]",–
O=C(NCC1COc2ccccc2O1)c1cn(Cc2ccc(F)cc2)nn1 (stereo not given),–,inactive: 1.05%
O=C(CN(c1cccc(C(F)(F)F)c1)S(=O)(=O)c1ccc(Cl)c([N+](=O)[O-])c1)NCc1ccc(F)cc1,active: 2.91 µM,–
COc1ccccc1NC(=O)c1ccc(NC(=O)CN2CCCCC2)cc1,"inconclusive [activator, single point]",–

SMILES,Potency,"activity, positive = re-replication"
CC1SCC(NC(=O)c2cccc(Cl)c2)CS1 (stereo not given),"inconclusive [activator, full curve, poor fit]",–
Cc1cccc2nc(CSC(=N)N)c(Br)n12,"inconclusive [activator, single point]",–
COC(=O)c1cccc(C(=O)Nc2ccc(C)cc2Br)n1,–,inactive: 4.59%
Nc1c(S(=O)(=O)c2cccs2)c2nc3ccccc3nc2n1/N=C/c1cccc(O)c1,active: 6.51 µM,–
Cc1cccc2cc3c(nc12)SC(=NCC1CCCO1)N(Cc1ccco1)C3 (stereo not given),"inconclusive [activator, partial curve, poor fit]",–
C/C(Cc1ccccc1)=N\NC(=O)CNC(=O)c1ccccc1Br,"inconclusive [activator, single point]",–
CNC(=O)c1ccsc1NC(=O)c1sc2ccccc2c1Cl,active: 29.1 µM,–
Cc1c(CN2CCN(C)C(CCO)C2)[nH]c2c(Cl)cccc12 (stereo not given),"inconclusive [activator, partial curve]",–
CCOC(=O)c1c(NC(=O)CN2CCC(C)CC2)sc(C)c1C,"inconclusive [activator, single point]",–
Cc1ccccc1NC(=O)Cn1c(C)nc2ccc(NC(=O)C3CC3)cc2c1=O,"inconclusive [activator, partial curve, poor fit]",–
COCCn1c(C)cc(C(=O)CSc2nc(C)c(C)c(C)n2)c1C,"inconclusive [activator, single point]",–
NC(=O)CCN1CCCCC1,–,inactive: 3.88%
CS/C(=N\S(=O)(=O)c1ccccc1)c1ccccc1,"inconclusive [activator, full curve]",–
CC[C@]12c3[nH]c4cc(CCC(=O)N(C)C)ccc4c3CCN1C(=O)[C@@H](CC(=O)NCCC1=CCCCC1)C[C@@H]2C(=O)N1CCN(C(=O)c2ccco2)CC1,"inconclusive [activator, partial curve, poor fit]",–
Cc1cccc(-c2nc(Nc3ccc(N4CCOCC4)cc3)c3ccccc3n2)c1,active: 20.6 µM,–
O=C1NCCN(CC2CCN(CCc3ccc(Cl)c(Cl)c3)CC2)C1=O,"inconclusive [activator, partial curve, poor fit]",–
O=C(O)CNc1nc(-c2ccccc2)c2cc([N+](=O)[O-])ccc2n1,–,inactive: 6.11%
O=C(COC(=O)CCN1C(=O)C2CC=CCC2C1=O)NCCc1ccc(F)cc1 (stereo not given),–,inactive: 1.99%
CCn1c(Sc2ccc([N+](=O)[O-])cn2)nnc1-c1ccco1,active: 6.51 µM,–
COc1cc(/C=C2/S/C(=N/S(=O)(=O)Cc3ccccc3)NC2=O)c([N+](=O)[O-])cc1OC,–,inactive: 12.8%
O=C(N/N=C/C(Br)=C/c1ccccc1)c1n[nH]c2c1CCC2,"inconclusive [activator, partial curve, poor fit]",–
CCN(C(=O)Cn1cnc2c1c(=O)n(C)c(=O)n2C)C1CCCCC1,–,inactive: 0.411%
CC[C@H](C)[C@H](NS(=O)(=O)c1ccc(C)cc1)C(=O)N1CCC(C(=O)N[C@H](C(=O)O)C(C)C)CC1,"inconclusive [activator, single point]",–
CCOC(=O)Cc1cnc(NC(=O)CSc2nc(C)cc(C)n2)s1,–,inactive: 3.78%

SMILES,Potency,"activity, positive = re-replication"
CN1C(=O)C(O)(C2CCCCCC2=O)c2ccccc21 (stereo not given),–,inactive: -2.94%
CC(Sc1nnc(Nc2ccccc2)s1)C(=O)NC1CCCc2ccccc21 (stereo not given),"inconclusive [activator, partial curve, poor fit]",–
COC(=O)c1ccc2nc(NC(=O)CCS(=O)(=O)c3ccccc3)sc2c1,"inconclusive [activator, single point]",–
COc1cc(SC)ccc1C(=O)Nc1cccc(S(=O)(=O)NC2=NCCCCC2)c1,–,inactive: 16.9%
CNC(=S)N/N=C/c1ccc(-c2ccc(C(=O)O)cc2)o1,"inconclusive [activator, single point]",–
COc1ccc(C(=O)Nc2cccc([N+](=O)[O-])c2)cc1Br,–,inactive: 5.36%
CC(=O)Oc1ccc(C(c2ccc(OC(C)=O)cc2)c2ccccn2)cc1,"inconclusive [activator, partial curve, poor fit]",–
COc1cccc2c1cc1c(=O)n(CC(=O)NCCCN3CCCCC3)nc(C)n12,–,inactive: 3.99%
O=c1[nH]cnc2c1C(c1ccc(Cl)cc1)c1c(nc[nH]c1=O)O2,"inconclusive [activator, partial curve, poor fit]",–
COC(=O)C(C)Sc1ccc2nnc(-c3cccc(F)c3)n2n1 (stereo not given),"inconclusive [activator, partial curve, poor fit]",–
Cc1ccccc1/C=C\c1nc2ccccc2c(=O)n1Cc1ccccc1,"inconclusive [activator, single point]",–
C[C@H](CO)N1C[C@H](C)[C@@H](CN(C)C(=O)NC2CCCCC2)Oc2c(NS(=O)(=O)c3ccc(F)cc3)cccc2C1=O,"inconclusive [activator, single point]",–
CC(=O)N1CC=C2C(C#N)=C(N)C(C#N)(C#N)C(C)C2C1 (stereo not given),–,inactive: 0.498%
COc1ccc(-c2cc3ccccc3oc2=O)cc1NC(=S)NC(=O)c1ccc2c(c1)OCCO2,"inconclusive [activator, full curve]",–
CN(C)CCCN(C(=O)c1ccco1)c1nc2ccc(Br)cc2s1,–,inactive: -1.29%
CCN(CC)c1ccc(NC(=O)c2ccc3c(c2)OCO3)c(C)c1,"inconclusive [activator, single point]",–
COc1ccc(S(=O)(=O)NCc2cccnc2)cc1,"inconclusive [activator, full curve, poor fit]",–
COc1ccccc1NC(CC(=O)c1ccccc1)C(=O)OCC(=O)c1ccc(F)cc1 (stereo not given),"inconclusive [activator, single point]",–
Cc1cccc2c1N(CCOc1ccccc1)C(=O)C2=O,"inconclusive [activator, single point]",–
O=C(/C=C\c1ccccc1OC(=O)c1ccccc1F)c1cc2ccccc2o1,"inconclusive [activator, single point]",–
CC1(C)CC(=O)c2cnc(N3CCc4ccccc43)nc2C1,"inconclusive [activator, full curve, poor fit]",–
Cc1cc(-c2ccccc2)nc(SCC(=O)c2cccc([N+](=O)[O-])c2)n1,"inconclusive [activator, single point]",–
